Measurements published in paper PMC11149917, “Translational and Therapeutic Evaluation of RAS-GTP Inhibition by RMC-6236 in RAS-Driven Cancers” (Cancer Discovery, 2024).
The source gives many values for each of these; only a part stands here.

System: PRISM panel of 845 cancer cell lines
Assay: PRISM assay
Type: cell-based, human
Method: The PRISM cell set comprised 845 cell lines representing more than 45 lineages (see Supplementary Table S1 for cell line information), which largely overlapped with the Cancer Cell Line Encyclopedia; https://portals.broadinstitute.org/ccle). Cell lines were grown in RPMI without phenol red and supplemented with 10% or 20% FBS for adherent and suspended lines, respectively. Parental cell lines were stably infected with a unique 24-nucleotide DNA barcode via lentiviral transduction and blasticidin selection. After selection, barcoded cell lines were expanded and subjected to quality control (Mycoplasma contamination test, an SNP test for confirming cell line identity, and barcode ID confirmation). Approved cell lines were then pooled (20–25 cell lines per pool) based on doubling time similarity and frozen in assay-ready vials.
RMC-6236 was added to 384-well plates at 8-point concentration with 3-fold dilutions in triplicate. These assay-ready plates were then seeded with the thawed cell line pools. Adherent cell pools were plated at 1,250 cells per well, whereas suspension and mixed adherent/suspension pools were plated at 2,000 cells per well. Treated cells were incubated for 5 days, and then lysed. Lysate plates were collapsed together prior to barcode amplification and detection.
Each cell line's unique barcode is located in the 3′UTR of the blasticidin-resistance gene and therefore is expressed as mRNA. Total mRNA was captured using magnetic particles that recognize polyA sequences. Captured mRNA was reverse-transcribed into cDNA and then the sequence containing the unique PRISM barcode was amplified using PCR. Finally, Luminex beads that recognize the specific barcode sequences in the cell set were hybridized to the PCR products and detected using a Luminex scanner which reports the signal as a median fluorescent intensity (MFI).
• Each detection well contained 10 control barcodes in increasing abundances as spike-in controls. For each plate, we first create a reference profile by calculating the median of the log2(MFI) values across negative control wells for each of these spiked-in barcodes. • For each well, a monotonic smooth p-spline was fitted to map the spike-in control levels to the reference profile. Next, we transform the log2(MFI) for each cell barcode using the fitted spline to allow well-to-well comparisons by correcting for amplification and detection artifacts. • Next, the separability between negative and positive control treatments was assessed. In particular, we calculated the error rate of the optimum simple threshold classifier between the control samples for each cell line and plate combination. The error rate is a measure of the overlap of the two control sets and was defined as error = (FP + FN)/n, where FP is false positives, FN is false negatives, and n is the total number of controls. A threshold was set between the distributions of positive and negative control log2(MFI) values (with everything below the threshold said to be positive and above said to be negative) such that this value is minimized. Additionally, we also calculated the dynamic range of each cell line. […] Additionally, any cell line that had less than 2 passing replicates was also omitted for the sake of reproducibility. Finally, we computed viability by normalizing with respect to the median negative control for each plate.
For every gene with nonsilent mutations in at least four cell lines, we compared the AUC values between cells with and without those mutations using a t test. This analysis was carried out for (i) the full data set; (ii) excluding cell lines with nonsilent KRAS mutations; and (iii) excluding cell lines that have either KRAS or NRAS nonsilent mutations.

CCn1c(-c2cc(N3CCN(C)CC3)cnc2[C@H](C)OC)c2c3cc(ccc31)-c1csc(n1)C[C@H](NC(=O)[C@H]1C[C@@H]1C)C(=O)N1CCC[C@H](N1)C(=O)OCC(C)(C)C2 [RMC-6236]
RMC-6236: RevMed PRISM: AUC (cell line SKMEL24_SKIN): 0.8099 | RMC-6236: RevMed PRISM: AUC (cell line SKNMC_BONE): 0.9307 | RMC-6236: RevMed PRISM: AUC (cell line SMSCTR_SOFT_TISSUE, HRAS p.Q61K): 0.448 | RMC-6236: RevMed PRISM: AUC (cell line SNB75_CENTRAL_NERVOUS_SYSTEM): 0.7427 | RMC-6236: RevMed PRISM: AUC (cell line SNU1_STOMACH, KRAS p.G12D): 0.4901 | RMC-6236: RevMed PRISM: AUC (cell line SNU81_LARGE_INTESTINE, KRAS p.A146T, NRAS p.E132K): 0.8361 | RMC-6236: RevMed PRISM: AUC (cell line SNU201_CENTRAL_NERVOUS_SYSTEM): 0.9124 | RMC-6236: RevMed PRISM: AUC (cell line SNU308_BILIARY_TRACT): 0.6147 | RMC-6236: RevMed PRISM: AUC (cell line SNU407_LARGE_INTESTINE, KRAS p.G12D): 0.5721 | RMC-6236: RevMed PRISM: AUC (cell line SNU449_LIVER): 0.8623 | RMC-6236: RevMed PRISM: AUC (cell line SNU466_CENTRAL_NERVOUS_SYSTEM): 0.4954 | RMC-6236: RevMed PRISM: AUC (cell line SNU638_STOMACH): 0.8249 | RMC-6236: RevMed PRISM: AUC (cell line SNU719_STOMACH, NRAS p.Q61L): 0.5187 | RMC-6236: RevMed PRISM: AUC (cell line SNU761_LIVER): 1 | RMC-6236: RevMed PRISM: AUC (cell line SNU840_OVARY): 0.6568 | RMC-6236: RevMed PRISM: AUC (cell line SNU886_LIVER): 0.654 | RMC-6236: RevMed PRISM: AUC (cell line SNU1041_UPPER_AERODIGESTIVE_TRACT): 0.6882 | RMC-6236: RevMed PRISM: AUC (cell line SNUC4_LARGE_INTESTINE): 0.799 | RMC-6236: RevMed PRISM: AUC (cell line SQ1_LUNG): 0.6318 | RMC-6236: RevMed PRISM: AUC (cell line STM9101_SOFT_TISSUE): 0.9112 | RMC-6236: RevMed PRISM: AUC (cell line SUM159PT_BREAST, HRAS p.G12D): 0.7173 | RMC-6236: RevMed PRISM: AUC (cell line SUPB15_HAEMATOPOIETIC_AND_LYMPHOID_TISSUE): 0.7241 | RMC-6236: RevMed PRISM: AUC (cell line SW13_ADRENAL_CORTEX): 0.6892 | RMC-6236: RevMed PRISM: AUC (cell line SW1353_BONE): 0.9995 | RMC-6236: RevMed PRISM: AUC (cell line SW1710_URINARY_TRACT): 0.8584 | RMC-6236: RevMed PRISM: AUC (cell line TANOUE_HAEMATOPOIETIC_AND_LYMPHOID_TISSUE): 0.6225 | RMC-6236: RevMed PRISM: AUC (cell line TC205_BONE): 0.8932 | RMC-6236: RevMed PRISM: AUC (cell line TCCSUP_URINARY_TRACT): 0.8252 | RMC-6236: RevMed PRISM: AUC (cell line TE4_OESOPHAGUS): 0.7638 | RMC-6236: RevMed PRISM: AUC (cell line TE9_OESOPHAGUS): 0.7204 | RMC-6236: RevMed PRISM: AUC (cell line TE617T_SOFT_TISSUE): 0.4026 | RMC-6236: RevMed PRISM: AUC (cell line TFK1_BILIARY_TRACT): 0.8395 | RMC-6236: RevMed PRISM: AUC (cell line TM87_SOFT_TISSUE): 0.8548 | RMC-6236: RevMed PRISM: AUC (cell line TOV21G_OVARY, KRAS p.G13C): 0.6993 | RMC-6236: RevMed PRISM: AUC (cell line TTC442_SOFT_TISSUE): 0.8703 | RMC-6236: RevMed PRISM: AUC (cell line TTC549_SOFT_TISSUE): 0.8297 | RMC-6236: RevMed PRISM: AUC (cell line TTC1240_SOFT_TISSUE): 0.7124 | RMC-6236: RevMed PRISM: AUC (cell line UACC257_SKIN): 0.8972 | RMC-6236: RevMed PRISM: AUC (cell line UMRC3_KIDNEY): 0.8143 | RMC-6236: RevMed PRISM: AUC (cell line UMUC13_URINARY_TRACT): 0.5595 | RMC-6236: RevMed PRISM: AUC (cell line VMRCRCZ_KIDNEY): 0.8774 | RMC-6236: RevMed PRISM: AUC (cell line WERIRB1_AUTONOMIC_GANGLIA): 0.8 | RMC-6236: RevMed PRISM: AUC (cell line WM793_SKIN): 0.8128 | RMC-6236: RevMed PRISM: AUC (cell line WSUDLCL2_HAEMATOPOIETIC_AND_LYMPHOID_TISSUE): 0.7311 | RMC-6236: RevMed PRISM: AUC (cell line YD15_SALIVARY_GLAND): 0.7048 | RMC-6236: RevMed PRISM: AUC (cell line YH13_CENTRAL_NERVOUS_SYSTEM): 0.941 | RMC-6236: RevMed PRISM: AUC (cell line YKG1_CENTRAL_NERVOUS_SYSTEM): 0.7657
